# The shares of active, inactive and inconclusive entries below differ from those in the screen. For part of these data: Potencies beside an inconclusive call are fits to weak or partial responses and may not hold up. Activity calls are given as the source filed them. The call rests on the fitted dose curve; in most records, active means well fitted curve in the direction sought with a large enough effect; inconclusive means small, poorly fitted or top-dose-only effect, or another doubt; inactive means no such curve, though single readings can be large; an effect the other way counts as inactive or inconclusive.
# Columns and labels:
# [1] = P-glycoprotein substrates identified in KB-8-5-11 adenocarcinoma cell line, qHTS therapeutic library screen (AID 1346987); further: nearly all actives have a fitted effect of over 65% in size; further: potency means the concentration at half of the fitted maximal effect
# In short: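 Steps: plate 500 KB-8-5-11 cells/well in DMEM + 10% FCS (colchicine removed); pin compounds in dose-response; incubate 72 h, 37 degree C, 5% CO2; add CellTiter-Glo, 5 min; read luminescence.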
# [2] = system: CRL-7250; experiment: Cytotoxic Profiling of Annotated Libraries Using Quantitative High-Throughput Screening (AID 1296008); conditions: Five cell lines viability, CellTiter-Glo ATP luminescence, 48-72 h; max response: hits give low values; further: nearly all actives have a fitted effect of over 60% in size; further: potency means the concentration at half of the fitted maximal effect; on max response: on the % scale 0 is the no-effect control and ±100 the full control effect
# In short: (§1)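 Compounds were pin-transferred onto cells and incubated 48 or 72 hr at 37 degree Celsius, 95% humidity. CellTiter-Glo was added, plates sat 10 min at room temperature, then ATP-coupled luminescence was imaged as the viability read-out.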
# [3] = system: HaCat; experiment: as above; conditions: Five cell lines viability, CellTiter-Glo ATP luminescence, 48-72 h; max response: hits give low values
# In short: as §1
# [4] = system: KB-3-1; experiment: as above; conditions: Five cell lines viability, CellTiter-Glo ATP luminescence, 48-72 h; max response: hits give low values
# In short: as §1
# [5] = system: C33A; experiment: Primary qHTS to identify gynecologic anti-cancer compounds using libraries of approved drugs and bioactive compounds (AID 1345084); conditions: Gynecologic cancer cell panel viability, ATPlite luminescence, 48 h; series mostly up to 57.5 µM; further: nearly all actives have a fitted effect of over 55% in size; further: potency means the concentration at half of the fitted maximal effect; on activity change, negative = cytotoxicity: on the % scale 0 is the no-effect control and ±100 the full control effect
# In short: (§2)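 ATP-based viability (ATPlite), 1,000 cells/well, 16 h pre-incubation, 48 h compound at 37 C, 5% CO2, 15 min RT before read.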
# [6] = system: CASKI; experiment: as above; conditions: Gynecologic cancer cell panel viability, ATPlite luminescence, 48 h; series mostly up to 57.5 µM
# In short: as §2
# [7] = system: Es-2; experiment: as above; conditions: Gynecologic cancer cell panel viability, ATPlite luminescence, 48 h; series mostly up to 57.5 µM
# In short: as §2
# [8] = system: HeLa; experiment: as above; conditions: Gynecologic cancer cell panel viability, ATPlite luminescence, 48 h; activity change, negative = cytotoxicity: at 57.5 µM (top of the series)
# In short: as §2
# [9] = system: Hek293T; experiment: as above; conditions: Gynecologic cancer cell panel viability, ATPlite luminescence, 48 h, control line for the selectivity index; activity change, negative = cytotoxicity: at 57.5 µM (top of the series) unless noted
# In short: as §2
# [10] = system: JEG-3; experiment: as above; conditions: Gynecologic cancer cell panel viability, ATPlite luminescence, 48 h; series mostly up to 57.5 µM
# In short: as §2
# [11] = system: OV90; experiment: as above; conditions: Gynecologic cancer cell panel viability, ATPlite luminescence, 48 h; series mostly up to 57.5 µM
# In short: as §2
# [12] = system: PA-1; experiment: as above; conditions: Gynecologic cancer cell panel viability, ATPlite luminescence, 48 h; series mostly up to 57.5 µM
# In short: as §2
# [13] = system: SKOV3; experiment: as above; conditions: Gynecologic cancer cell panel viability, ATPlite luminescence, 48 h; series mostly up to 57.5 µM
# In short: as §2
# [14] = system: Tov-21-G; experiment: as above; conditions: Gynecologic cancer cell panel viability, ATPlite luminescence, 48 h; activity change, negative = cytotoxicity: at 57.5 µM (top of the series) unless noted
# In short: as §2
# [15] = system: Tov112D; experiment: as above; conditions: Gynecologic cancer cell panel viability, ATPlite luminescence, 48 h; series mostly up to 57.5 µM
# In short: as §2
# [16] = system: Zika virus NS2B-NS3 protease (unlinked complex); experiment: Primary screen GU Rhodamine qHTS for Zika virus inhibitors: Unlinked NS2B-NS3 protease assay (AID 1347159); further: on the % scale 0 is the no-effect control and ±100 the full control effect; nearly all actives have a fitted effect of over 60% in size
# In short: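 Noncovalent NS2B hydrophilic domain–NS3 protease domain complex (25 nM) preincubated 15 min at room temperature with compounds (up to 114 microM) in 10 mM Tris-HCl pH 8.0, 0.01% Tween 20; 1.5 microM Rhodamine110 substrate added, fluorescence change over 15 min fitted to Hill equation.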
# [17] = Primary qHTS for inhibitors of nuclear receptor binding SET domain protein 2 (NSD2) in an RCH-ACV wild type WT cells (2C) (AID 1645877); conditions: activity change, negative = cell killing: at 44.9 µM (top of the series) unless noted; further: potency means the concentration at half of the fitted maximal effect; nearly all actives have a fitted effect of over 70% in size
# [18] = Primary qHTS for inhibitors of nuclear receptor binding SET domain protein 2 (NSD2) in an isogenic RCH-ACV NSD2 p.E1099K mutant (9B) (AID 1645876); further: nearly all actives have a fitted effect of over 70% in size; further: potency means the concentration at half of the fitted maximal effect
# [19] = system: NIH3T3; experiment: Cytotoxic Profiling of Annotated Libraries Using Quantitative High-Throughput Screening (AID 1296008); conditions: Five cell lines viability, CellTiter-Glo ATP luminescence, 48-72 h; max response: hits give low values; further: nearly all actives have a fitted effect of over 60% in size; further: potency means the concentration at half of the fitted maximal effect; on max response: on the % scale 0 is the no-effect control and ±100 the full control effect
# In short: as §1
# [20] = system: CAOV3; experiment: Primary qHTS to identify gynecologic anti-cancer compounds using libraries of approved drugs and bioactive compounds (AID 1345084); conditions: Gynecologic cancer cell panel viability, ATPlite luminescence, 48 h; activity change, negative = cytotoxicity: at 57.5 µM (top of the series); further: nearly all actives have a fitted effect of over 55% in size; further: potency means the concentration at half of the fitted maximal effect; on activity change, negative = cytotoxicity: on the % scale 0 is the no-effect control and ±100 the full control effect
# In short: as §2
# Tags describe the fitted curve by direction and shape.
structure (smiles),measurement,setting,value
O=C(NO)c1cnc(N2CCN(S(=O)(=O)c3ccc4ccccc4c3)CC2)nc1,Potency,[1],"inconclusive: 0.796 µM [inhibitor, full curve, poor fit]"
same,Potency,[2],active: 7.96 µM
same,Potency,[3],"inconclusive: 0.796 µM [inhibitor, full curve, poor fit]"
same,Potency,[4],"inconclusive: 1.12 µM [inhibitor, full curve, poor fit]"
same,Potency,[5],"inconclusive: 7.94 µM [cytotoxic, partial curve, poor fit]"
same,Potency,[6],"inconclusive: 10 µM [cytotoxic, partial curve, poor fit]"
same,Potency,[7],"inconclusive: 5.01 µM [cytotoxic, full curve, poor fit]"
same,Potency,[8],inconclusive: 1.12 µM
same,Potency,[9],inconclusive: 12.6 µM
same,Potency,[10],"inconclusive: 4.47 µM [cytotoxic, full curve, poor fit]"
same,Potency,[11],active: 3.98 µM
same,Potency,[12],inconclusive: 3.16 µM
same,Potency,[13],inconclusive: 0.0631 µM
same,Potency,[14],"inconclusive: 6.31 µM [cytotoxic, partial curve, poor fit]"
same,Potency,[15],inconclusive: 0.224 µM
Cc1nc(C#Cc2ccnc(Cl)c2)c(C)n1-c1ccc(F)cc1,Potency,[1],"inconclusive: 13 µM [inhibitor, partial curve]"
same,Potency,[16],inactive
same,Potency,[17],active: 11.5 µM
same,Potency,[2],active: 18.4 µM
same,Potency,[3],"inconclusive: 4.61 µM [inhibitor, partial curve, poor fit]"
same,Potency,[4],"inconclusive: 9.2 µM [inhibitor, partial curve, poor fit]"
same,Potency,[5],"inconclusive: 35.5 µM [cytotoxic, single point]"
same,Potency,[7],inactive
same,Potency,[9],"inconclusive: 35.5 µM [cytotoxic, single point]"
same,Potency,[13],"inconclusive: 28.2 µM [cytotoxic, single point]"
COC(=O)CCc1cc2ccoc2c(OC)c1O[C@@H]1O[C@H](CO)[C@@H](O)[C@H](O)[C@H]1O,Potency,[18],inactive
same,max response,[2],inactive: -7.38%
same,Potency,[3],"inconclusive: 8.93 µM [inhibitor, single point]"
same,outcome,[4],inactive
CC(=O)Oc1ccc(C2(c3ccc(OC(C)=O)cc3)Oc3ccccc3NC2=O)cc1,Potency,[1],"inconclusive: 32.6 µM [inhibitor, partial curve, poor fit]"
same,Potency,[2],active: 8.41 µM
same,Potency,[3],"inconclusive: 29.1 µM [inhibitor, single point]"
same,Potency,[19],"inconclusive: 18.4 µM [inhibitor, single point]"
same,Potency,[20],"inconclusive: 31.6 µM [cytotoxic, single point]"
same,Potency,[6],"inconclusive: 20 µM [cytotoxic, single point]"
same,Potency,[7],"inconclusive: 35.5 µM [cytotoxic, single point]"
same,Potency,[8],"inconclusive: 20 µM [cytotoxic, single point]"
same,Potency,[9],"inconclusive: 11.2 µM [cytotoxic, partial curve]"
same,Potency,[10],"inconclusive: 17.8 µM [cytotoxic, single point]"
same,Potency,[11],"inconclusive: 39.8 µM [cytotoxic, single point]"
same,Potency,[12],active: 31.6 µM
same,Potency,[13],"inconclusive: 39.8 µM [cytotoxic, single point]"
same,Potency,[14],active: 22.4 µM
same,Potency,[15],"inconclusive: 25.1 µM [cytotoxic, single point]"
CCN1CCC[C@@H]1CNC(=O)c1ccc2c(c1)NC(=O)/C(=C/c1ccccc1F)S2,Potency,[1],"inconclusive: 23.1 µM [inhibitor, single point]"
same,Potency,[2],"inconclusive: 29.1 µM [inhibitor, single point]"
same,Potency,[3],"inconclusive: 25.9 µM [inhibitor, single point]"
same,Potency,[4],"inconclusive: 23.1 µM [inhibitor, single point]"
same,Potency,[20],"inconclusive: 39.8 µM [cytotoxic, single point]"
same,Potency,[6],"inconclusive: 39.8 µM [cytotoxic, single point]"
same,Potency,[7],inactive
same,Potency,[10],inactive
same,Potency,[11],"inconclusive: 22.4 µM [cytotoxic, single point]"
same,Potency,[12],"inconclusive: 5.01 µM [cytotoxic, partial curve]"
same,Potency,[13],"inconclusive: 39.8 µM [cytotoxic, single point]"
C=CCNC1=C2C[C@@H](C)C[C@H](OC)[C@@H](O)[C@@H](C)C=C(C)[C@H](OC(N)=O)[C@@H](OC)C=CC=C(C)C(=O)NC(=CC1=O)C2=O,Potency,[2],active: 0.296 µM
same,Potency,[3],active: 0.59 µM
same,Potency,[19],active: 0.526 µM
COc1cc(N2CCOCC2)ccc1Nc1ncc(F)c(Nc2ccccc2NS(C)(=O)=O)n1,Potency,[1],"inconclusive: 18.4 µM [inhibitor, single point]"
same,Potency,[16],inactive
same,Potency,[2],"inconclusive: 29.1 µM [inhibitor, single point]"
same,Potency,[3],active: 7.31 µM
same,Potency,[19],"inconclusive: 23.1 µM [inhibitor, single point]"
same,Potency,[5],"inconclusive: 4.47 µM [cytotoxic, partial curve, poor fit]"
same,Potency,[20],"inconclusive: 39.8 µM [cytotoxic, single point]"
same,Potency,[6],"inconclusive: 28.2 µM [cytotoxic, single point]"
same,Potency,[7],inactive
same,Potency,[8],"inconclusive: 39.8 µM [cytotoxic, single point]"
same,Potency,[9],"inconclusive: 28.2 µM [cytotoxic, single point]"
same,Potency,[10],"inconclusive: 35.5 µM [cytotoxic, partial curve, poor fit]"
same,Potency,[11],"inconclusive: 10 µM [cytotoxic, partial curve]"
same,Potency,[12],"inconclusive: 35.5 µM [cytotoxic, single point]"
same,Potency,[13],"inconclusive: 28.2 µM [cytotoxic, single point]"
same,Potency,[14],"inconclusive: 28.2 µM [cytotoxic, partial curve]"
same,Potency,[15],"inconclusive: 22.4 µM [cytotoxic, single point]"
CC(C)C[C@H](NC(=O)CNC(=O)[C@H](Cc1ccc(O)cc1)NC(=O)[C@H](CO)NC(=O)[C@H](Cc1c[nH]c2ccccc12)NC(=O)[C@H](Cc1cnc[nH]1)NC(=O)[C@@H]1CCC(=O)N1)C(=O)N[C@@H](CCCN=C(N)N)C(=O)N1CCC[C@H]1C(=O)NCC(N)=O (stereo in doubt),Potency,[1],inactive
same,Potency,[18],"inconclusive: 33.5 µM [inhibitor, single point]"
same,Potency,[17],"inconclusive: 29.9 µM [inhibitor, single point]"
same,Potency,[2],"inconclusive: 33.5 µM [inhibitor, single point]"
same,Potency,[3],"inconclusive: 29.9 µM [inhibitor, single point]"
same,Potency,[19],"inconclusive: 21.1 µM [inhibitor, single point]"
same,Potency,[5],"inconclusive: 31.6 µM [cytotoxic, single point]"
same,Potency,[20],"inconclusive: 39.8 µM [cytotoxic, single point]"
same,Potency,[6],"inconclusive: 39.8 µM [cytotoxic, single point]"
same,Potency,[7],"inconclusive: 28.2 µM [cytotoxic, single point]"
same,Potency,[8],"inconclusive: 28.2 µM [cytotoxic, single point]"
same,Potency,[9],"inconclusive: 39.8 µM [cytotoxic, single point]"
same,Potency,[10],"inconclusive: 39.8 µM [cytotoxic, single point]"
same,Potency,[11],"inconclusive: 39.8 µM [cytotoxic, single point]"
same,Potency,[12],"inconclusive: 39.8 µM [cytotoxic, single point]"
same,Potency,[13],"inconclusive: 39.8 µM [cytotoxic, single point]"
same,Potency,[14],"inconclusive: 39.8 µM [cytotoxic, single point]"
same,Potency,[15],"inconclusive: 39.8 µM [cytotoxic, single point]"
CCCCCCCCCCCCCCNCCO,Potency,[1],"inconclusive: 23.1 µM [inhibitor, single point]"
same,Potency,[18],active: 7.5 µM
same,Potency,[17],active: 7.5 µM
same,Potency,[2],"inconclusive: 26.6 µM [inhibitor, single point]"
same,Potency,[3],"inconclusive: 29.9 µM [inhibitor, single point]"
same,Potency,[19],"inconclusive: 33.5 µM [inhibitor, single point]"
same,Potency,[5],"inconclusive: 39.8 µM [cytotoxic, single point]"
same,Potency,[20],"inconclusive: 11.2 µM [cytotoxic, partial curve, poor fit]"
O=C(c1ccccc1)c1c(O)cc(O)cc1O[C@@H]1O[C@H](CO)[C@@H](O)[C@H](O)[C@H]1O,Potency,[2],"inconclusive: 18 µM [inhibitor, single point]"
same,Potency,[3],"inconclusive: 0.101 µM [inhibitor, full curve, poor fit]"
same,Potency,[19],"inconclusive: 20.2 µM [inhibitor, single point]"
same,Potency,[5],"inconclusive: 22.4 µM [cytotoxic, single point]"
same,Potency,[20],"inconclusive: 28.2 µM [cytotoxic, single point]"
same,Potency,[6],"inconclusive: 10 µM [cytotoxic, partial curve]"
same,Potency,[7],"inconclusive: 20 µM [cytotoxic, single point]"
same,Potency,[8],"inconclusive: 28.2 µM [cytotoxic, single point]"
same,Potency,[9],"inconclusive: 20 µM [cytotoxic, single point]"
same,Potency,[10],"inconclusive: 22.4 µM [cytotoxic, single point]"
same,Potency,[11],"inconclusive: 28.2 µM [cytotoxic, single point]"
same,Potency,[14],"inconclusive: 28.2 µM [cytotoxic, single point]"
same,Potency,[15],active: 11.2 µM
CS(=O)(=O)c1ccc([C@H](CC2CCCC2)C(=O)Nc2nccs2)cc1,Potency,[1],"inconclusive: 9.2 µM [inhibitor, partial curve]"
same,Potency,[16],inactive
same,Potency,[18],"inconclusive: 20.5 µM [inhibitor, single point]"
same,Potency,[17],"inconclusive: 23.1 µM [inhibitor, partial curve, poor fit]"
same,max response,[2],inactive: 1.1%
same,Potency,[3],"inconclusive: 29.1 µM [inhibitor, single point]"
same,outcome,[4],inactive
same,Potency,[6],inactive
same,Potency,[13],"inconclusive: 2 µM [rising, partial curve, poor fit]"
